# Counter-ions that a name gives are not always drawn. ± gives the standard error. Hit rate of the full screen: of about 1,300 compounds, about 130 (10%) showed an effect of 50% or more. Only a part is listed here, and it is no random draw.
# System: Trichoderma virens ATCC 9645
# Experiment: growth yield (OD600) with compound + IPBC relative to untreated control; higher = less growth inhibition
# Conditions: compound concentration: 100 uM, IPBC concentration: 200 ng/ml
# Method in brief: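 A biocide at 200 ng ml^−1 was co-applied to some wells, and library compounds were present in all test wells at 100 μM final. The wells held 100 μl of Trichoderma virens ATCC 9645 spores at 15,000 spores ml^−1 in potato dextrose broth, grown at 30 °C in 96-well plates, with OD600 read at 40 h and 72 h. Results are relative growth against the control without either agent, averaged across duplicate screens.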
Compound,growth yield (40 h) [%],growth yield (72 h) [%]
CC(C)(C)NCC(O)c1ccc(O)c(CO)c1 (configuration not stated) [Salbutamol] + CCCCNC(=O)OCC#CI [3-iodo-2-propynyl butylcarbamate (IPBC)],85.93 ± 0.16,93 ± 0.94
O=C(O[C@@H]1C[C@@H]2C[C@H]3C[C@H](C1)N2CC3=O)c1c[nH]c2ccccc12 [Dolasetron mesilate] + CCCCNC(=O)OCC#CI [3-iodo-2-propynyl butylcarbamate (IPBC)],80.06 ± 0.64,95.6 ± 2.3
COC(=O)Nc1nc2cc(C(=O)c3ccc(F)cc3)ccc2[nH]1 [Flubendazol] + CCCCNC(=O)OCC#CI [3-iodo-2-propynyl butylcarbamate (IPBC)],86.4 ± 5.4,91.1 ± 4.9
C[C@]12CCC(=O)C=C1C=C[C@@H]1[C@@H]2CC[C@@]2(C)[C@H]1CC[C@@]21CCC(=O)O1 [Canrenone] + CCCCNC(=O)OCC#CI [3-iodo-2-propynyl butylcarbamate (IPBC)],54.6 ± 2.9,83.5 ± 1.5
NC(=O)OCC(O)COc1ccc(Cl)cc1 (configuration not stated) [Chlorphensin carbamate] + CCCCNC(=O)OCC#CI [3-iodo-2-propynyl butylcarbamate (IPBC)],92.3 ± 1.4,100 ± 2.5
COC(=O)CCc1ccc(OCC(O)CNC(C)C)cc1 (configuration not stated) [Esmolol hydrochloride] + CCCCNC(=O)OCC#CI [3-iodo-2-propynyl butylcarbamate (IPBC)],91.8 ± 4.8,93.9 ± 3
CN1C(C(=O)Nc2ccccn2)=C(O)c2ccccc2S1(=O)=O [Piroxicam] + CCCCNC(=O)OCC#CI [3-iodo-2-propynyl butylcarbamate (IPBC)],82.3 ± 1.3,99.4 ± 4.4
COCCOC(=O)C1=C(C)NC(C)=C(C(=O)OC(C)C)C1c1cccc([N+](=O)[O-])c1 (configuration not stated) [Nimodipine] + CCCCNC(=O)OCC#CI [3-iodo-2-propynyl butylcarbamate (IPBC)],79.7 ± 7.9,87.3 ± 1.3
CNCCC=C1c2ccccc2C=Cc2ccccc21 [Norcyclobenzaprine] + CCCCNC(=O)OCC#CI [3-iodo-2-propynyl butylcarbamate (IPBC)],65.28 ± 0.48,86.3 ± 1.6
Cc1ccc(C)c(OCCCC(C)(C)C(=O)O)c1 [Gemfibrozil] + CCCCNC(=O)OCC#CI [3-iodo-2-propynyl butylcarbamate (IPBC)],66.4 ± 1.3,90 ± 1.3
O=C(O)C[C@H](O)C[C@H](O)/C=C/c1c(C2CC2)nc2ccccc2c1-c1ccc(F)cc1 [Pitavastatin calcium] + CCCCNC(=O)OCC#CI [3-iodo-2-propynyl butylcarbamate (IPBC)],14 ± 2.2,39.4 ± 3.4
